The source of these data is US20250368649A1, “TETRAHYDROPYRIDOPYRIMIDINE PAN-KRAS INHIBITORS” (Mirati Therapeutics, Inc., priority 2022, published 2025).

Some results are limits rather than exact numbers.

One test has as its target KRas WT (Homo sapiens, UniProt P01116). Kind of test: KRas binding assay (TR-FRET displacement), KRas WT. The settings on record: for inhibition at 0.01 µM: single point, 10 nM compound; for IC50: TR-FRET displacement. Background: In TR-FRET formats the signal depends on donor and acceptor labels being close together.
Another test has as its target KRas G12A (Homo sapiens, UniProt P01116, G12A). In kind it is binding. The conditions noted are these: for inhibition at 0.01 µM: single point, 10 nM compound, read-out: Binding to KRas (% inhibition at 10 nM) G12A; for IC50: TR-FRET displacement, read-out: Binding to KRas (IC50 nM) G12A.
Another test addresses KRas G12C (Homo sapiens, UniProt P01116, G12C). In kind it is binding. The conditions noted are these: for inhibition at 0.01 µM: single point, 10 nM compound, read-out: Binding to KRas (% inhibition at 10 nM) G12C; for IC50: TR-FRET displacement, read-out: Binding to KRas (IC50 nM) G12C.
The target in another test is KRas G12S (Homo sapiens, UniProt P01116, G12S). The format is binding. The settings on record: for inhibition at 0.01 µM: single point, 10 nM compound, read-out: Binding to KRas (% inhibition at 10 nM) G12S; for IC50: TR-FRET displacement, read-out: Binding to KRas (IC50 nM) G12S.
A further test concerns the target KRas G13D (Homo sapiens, UniProt P01116, G13D). The format is binding. The conditions noted are these: for inhibition at 0.01 µM: single point, 10 nM compound, read-out: Binding to KRas (% inhibition at 10 nM) G13D; for IC50: TR-FRET displacement, read-out: Binding to KRas (IC50 nM) G13D.
A further test has as its target KRas Q61H (Homo sapiens, UniProt P01116, Q61H). The test can be described thus: KRas binding assay (TR-FRET displacement), KRas Q61H. The conditions noted are these: for inhibition at 0.01 µM: single point, 10 nM compound; for IC50: TR-FRET displacement.
For another test, the system named is MKN1 cells. The test can be described thus: Inhibition of KRas-mediated phosphorylation of ERK (Cisbio HTRF pERK), MKN1 cells. The format is cell-based. The settings on record: Homo sapiens, MKN-1, 3 hour compound incubation. Summed up:
(§1)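 Day 1: 6,000 cells/well plated, RPMI + 10% FBS.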

The subject of the next test is PSN1 cells. The test can be described thus: Inhibition of KRas-mediated phosphorylation of ERK (Cisbio HTRF pERK), PSN1 cells. The format is cell-based. The settings on record: Homo sapiens, PSN1, 3 h, 3 hour compound incubation, Cisbio pERK HTRF. The essentials:
as §1

A further test deals with ASPC1 cells. The test can be described thus: Inhibition of KRas-mediated phosphorylation of ERK (Cisbio HTRF pERK), ASPC1 cells. The conditions noted are these: Homo sapiens, AsPC-1 cells; for IC50: ASPC1, 3 h, 3 hr compound incubation, Cisbio pERK HTRF. The format is cell-based.
In another test the test system is H727 cells. Kind of test: Inhibition of KRas-mediated phosphorylation of ERK (Cisbio HTRF pERK), H727 cells. The format is cell-based. The conditions noted are these: Homo sapiens; for IC50: NCI-H727, 3 h, 3 hr compound incubation, Cisbio pERK HTRF.
In a further test the test system is A549 cells. The test can be described thus: Inhibition of KRas-mediated phosphorylation of ERK (Cisbio HTRF pERK), A549 cells. The conditions noted are these: Homo sapiens; for inhibition at 0.1 µM: single point at 100 nM, 3 hrs compound incubation; for IC50: A549, 3 h, 3 hr compound incubation, Cisbio pERK HTRF. In kind it is cell-based.
The test system of a further test is H460 cells. The test can be described thus: Inhibition of KRas-mediated phosphorylation of ERK (Cisbio HTRF pERK), H460 cells. The format is cell-based. The conditions noted are these: Homo sapiens; for IC50: NCI-H460, 3 h, 3 hr compound incubation, Cisbio pERK HTRF; for inhibition at 0.1 µM: NCI-H460, single point at 100 nM, 3 hrs compound incubation.
The subject of a further test is HCT116 cells. The test can be described thus: Inhibition of KRas-mediated phosphorylation of ERK (Cisbio HTRF pERK), HCT116 cells. The settings on record: Homo sapiens; for IC50: HCT-116, 3 h, 3 hr compound incubation, Cisbio pERK HTRF; for inhibition at 0.1 µM: HCT-116, single point at 100 nM, 3 hrs compound incubation. In kind it is cell-based.
For a further test, the system named is H358 cells. Kind of test: Inhibition of KRas-mediated phosphorylation of ERK (Cisbio HTRF pERK), H358 cells. The format is cell-based. The settings on record: Homo sapiens; for inhibition at 0.1 µM: NCI-H358, single point at 100 nM, 3 hrs compound incubation; for IC50: NCI-H358, 3 h, 3 hr compound incubation, Cisbio pERK HTRF.

Turning to `CCc1c(F)ccc2cc(O)cc(N3CCc4c(nc(OC[C@@]56CCCN5C[C@H](F)C6)nc4N4CCCn5nc(NC)c(Br)c5C4)C3)c12` [Example 394, 4-(4-(3-bromo-2-(methylamino)-7,8-dihydro-4H-pyrazolo[1,5-a][1,4]diazepin-5(6H)-yl)-2-(((2R,7aS)-2-fluorohexahydro-1H-pyrrolizin-7a-yl)methoxy)-5,6-dihydropyrido[3,4-d]pyrimidin-7(8H)-yl)-5-ethyl-6-fluoronaphthalen-2-ol], the inhibition – broadly, the change of the read-out against control, counted positive when it falls – at 0.01 µM at KRas WT amounted to 65%; on KRas G12A, 71%; on KRas G12C, 88%; on KRas G12S, 80%; on KRas G13D, 70%; at KRas Q61H, 63%. Further, the IC50 (commonly the concentration that inhibits the measured activity by half) with MKN1 cells is 49.4 nM; with PSN1 cells, over 10000 nM; with ASPC1 cells, 28 nM; in the test on H727 cells it was 109 nM; in the test on H460 cells, 79 nM; with HCT116 cells, 257 nM. For the same molecule, the values for the inhibition at 0.1 µM in the test on A549 cells and in the test on H358 cells were 57% and 80%, respectively.
Consider `CCc1c(F)ccc2cc(O)cc(N3CCc4c(nc(OC[C@@]56CCCN5C[C@H](F)C6)nc4N4CCCn5nc(C(=O)N6CCOCC6)c(Cl)c5C4)C3)c12` [Example 413, (3-chloro-5-(7-(8-ethyl-7-fluoro-3-hydroxynaphthalen-1-yl)-2-(((2R,7aS)-2-fluorohexahydro-1H-pyrrolizin-7a-yl)methoxy)-5,6,7,8-tetrahydropyrido[3,4-d]pyrimidin-4-yl)-5,6,7,8-tetrahydro-4H-pyrazolo[1,5-a][1,4]diazepin-2-yl)(morpholino)methanone], for which the inhibition at 0.01 µM is 99% on KRas WT; 98% at KRas G12A; 100% at KRas G12C; 99% on KRas G12S; 99% on KRas G13D; 100% on KRas Q61H. Also, the IC50 in the test on MKN1 cells is 0.4 nM; in the test with PSN1 cells, 2180 nM; with ASPC1 cells it was 1 nM; in the test on H727 cells, 3 nM; in the test on A549 cells, 4 nM; in the test with H460 cells, 5 nM. Besides, the IC50 in the test on HCT116 cells was found to be 23 nM; in the test on H358 cells, 1 nM.
For `C[C@@H]1C[C@@H]1c1c(Cl)cc2[nH]ncc2c1N1CCc2c(nc(OC[C@@]34CCCN3C[C@H](F)C4)nc2N2CCC[C@]3(C2)NC(=O)NC3=O)C1` [Example 448, (R)-7-(7-(6-chloro-5-((1S,2R)-2-methylcyclopropyl)-1H-indazol-4-yl)-2-(((2R,7aS)-2-fluorohexahydro-1H-pyrrolizin-7a-yl)methoxy)-5,6,7,8-tetrahydropyrido[3,4-d]pyrimidin-4-yl)-1,3,7-triazaspiro[4.5]decane-2,4-dione], the IC50 on KRas WT, on KRas G12A, on KRas G12C, at KRas G12S, on KRas G13D and at KRas Q61H was under 2 nM throughout. For the same molecule, the IC50 with MKN1 cells came out at 22.4 nM; in the test on PSN1 cells, 1000 nM; with ASPC1 cells, 631 nM; with H727 cells it was 280 nM; with A549 cells, 369 nM; in the test on H460 cells, 156 nM. Moreover, the results for the IC50 in the test on HCT116 cells and in the test on H358 cells were 196 nM and 24 nM, respectively.
Turning to `O=S1(=O)CCC2(CCCN(c3nc(OC[C@@]45CCCN4C[C@H](F)C5)nc4c3CCN(c3cc(O)cc5ccc(F)c(Cl)c35)C4)C2)C1` (stereo partly drawn) [Example 465, 7-(7-(8-chloro-7-fluoro-3-hydroxynaphthalen-1-yl)-2-(((2R,7aS)-2-fluorohexahydro-1H-pyrrolizin-7a-yl)methoxy)-5,6,7,8-tetrahydropyrido[3,4-d]pyrimidin-4-yl)-2-thia-7-azaspiro[4.5]decane 2,2-dioxide], the inhibition at 0.01 µM is 92% on KRas WT; 77% on KRas G12A; 97% at KRas G12C; 93% on KRas G12S; 96% at KRas G13D; 96% on KRas Q61H. Also, the IC50 in the test on MKN1 cells came to 16 nM; with PSN1 cells, 903 nM; in the test on ASPC1 cells, 68 nM; with H727 cells, 154 nM. Also, the inhibition at 0.1 µM in the test on A549 cells is 46%; with H460 cells, 54%; with HCT116 cells, 25%; with H358 cells, 66%.
`O=C1NC(=O)[C@]2(CCCN(c3nc(OC[C@@]45CCCN4C[C@H](F)C5)nc4c3CCN(c3c(C5CC5)c(Cl)cc5[nH]ncc35)C4)C2)N1` [Example 470, (R)-7-(7-(6-chloro-5-cyclopropyl-1H-indazol-4-yl)-2-(((2R,7aS)-2-fluorohexahydro-1H-pyrrolizin-7a-yl)methoxy)-5,6,7,8-tetrahydropyrido[3,4-d]pyrimidin-4-yl)-1,3,7-triazaspiro[4.5]decane-2,4-dione]: the IC50 on KRas WT, at KRas G12A, on KRas G12C, at KRas G12S, on KRas G13D and on KRas Q61H was under 2 nM each time. The IC50 in the test with MKN1 cells amounted to 1.5 nM; in the test on PSN1 cells it was 1840 nM; in the test with ASPC1 cells, 362 nM; in the test on H727 cells, 50 nM; with A549 cells it was 283 nM; in the test with H460 cells, 151 nM. Further, the half-maximal inhibitory concentration (IC50) was found to be 264 nM in the test with HCT116 cells and 27 nM in the test on H358 cells. The inhibition at 0.01 µM came out at 99% at KRas WT; 97% on KRas G12A; 98% on KRas G12C; 99% on KRas G12S; 99% at KRas G13D; 99% at KRas Q61H. Moreover, the inhibition at 0.1 µM in the test on A549 cells was 33%; in the test with H460 cells it was 39%; in the test on HCT116 cells, -5%; in the test on H358 cells it was 77%.
As to `Cc1cc2[nH]ncc2c(N2CCc3c(nc(OCC4(CN(C)C)CC4)nc3N3CCCC4(CNS(=O)(=O)N4)C3)C2)c1C` (stereo not drawn) [Example 511, 7-(7-(5,6-dimethyl-1H-indazol-4-yl)-2-((1-((dimethylamino)methyl)cyclopropyl)methoxy)-5,6,7,8-tetrahydropyrido[3,4-d]pyrimidin-4-yl)-2-thia-1,3,7-triazaspiro[4.5]decane 2,2-dioxide], the IC50 at KRas WT is 30 nM; on KRas G12A it was 34 nM; on KRas G12C, 20 nM; on KRas G12S it was 30 nM; at KRas G13D, 28 nM; at KRas Q61H, 32 nM. Moreover, the IC50 is 169 nM with MKN1 cells, over 10000 nM with PSN1 cells, 2550 nM in the test on ASPC1 cells and over 10000 nM in the test with H727 cells. Further, the inhibition at 0.1 µM is 18% with ASPC1 cells (ASPC1, single point at 100 nM, 3 hrs compound incubation); 9% in the test on H727 cells (NCI-H727, single point at 100 nM, 3 hrs compound incubation); 1% in the test on A549 cells; -7% in the test on H460 cells; 4% in the test with HCT116 cells; -22% in the test on H358 cells.
